# In the supplement of paper PMC10126150:
# Values marked as one replicate rest on one cluster of the flow cell; about a third of the high ones do not repeat.
# System: ATP
# Test: switch fluorescence ratio, 500 uM ATP over buffer (Cy3 cluster intensity, sum of 5 cycles each) (fold (ratio)); higher = stronger signal-on switching upon ATP binding; sequences stand for … in TCGTCGGCAGCGTCAGATGTGTATAAGAGACAGTTTTTTTTTTTTTTTTTTTTTTTTT…TC
# Conditions: aptamer strand: ATP DNA aptamer (quencher-CACCTGGGGGAGTATTGCGGAGGAAGG + anchor), 100 nM annealed; ATP concentration: 500 uM; one replicate
# Summary of the method: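 The fluorescence ratio divides summed target-cycle Cy3 intensity by summed buffer-cycle Cy3 intensity for each cluster and is averaged per switch-domain sequence. Cy3-labelled switching-strand clusters on a modified Illumina MiSeq flow-cell were annealed to 100 nM quencher-labelled ATP aptamer, then imaged in selection buffer and again after 15 min with 500 uM ATP at 22 °C. Five such cycles were run, with NaOH stripping and re-annealing between them, and clusters outside 100-1000 RFU were excluded.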
# 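Further: ATP exposure 15 min at 22 °C before imaging.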
row,Sequence,switch fluorescence ratio
1,GTATTTCAAG,0.966
2,GTATTTGGCA,0.99
3,GTATTTTTAA,0.981
4,GTATTTTTG,1.05
5,GTCAACCAGT,1.01
6,GTCAACGTAC,1.81
7,GTCACTAGGG,1
8,GTCAGCATCG,1.05
9,GTCAGGGCGC,0.963
10,GTCAGGTA,1
11,GTCAGGTGTA,1.12
12,GTCAGTAACG,1.01
13,GTCAGTATTT,0.992
14,GTCATCCCAA,1.99
15,GTCATCTGCT,0.999
16,GTCATGTATC,1
17,GTCATTTCGA,0.986
18,GTCCAACCTT,0.982
19,GTCCACAGTG,1.6
20,GTCCATATAG,1.04
21,GTCCATCGGT,0.997
22,GTCCATGGAT,0.993
23,GTCCCAATAA,2.24
24,GTCCCAATGT,1.09
25,GTCCCATAT,1.03
26,GTCCCTATGT,1.03

row,Sequence,switch fluorescence ratio
1,GTCCCTCGGA,0.952
2,GTCCCTCTAG,1.06
3,GTCCCTCTCC,1.07
4,GTCCGCCAGT,1.2
5,GTCCTACTCT,0.953
6,GTCCTAGAGG,1.02
7,GTCCTGAGG,0.967
8,GTCGAAAGTG,0.929
9,GTCGAATCTA,0.966
10,GTCGACTATA,0.976
11,GTCGAGAGT,0.982
12,GTCGAGCCGG,1.04
13,GTCGATCGGA,0.995
14,GTCGCAACGG,0.991
15,GTCGCAAGCA,1.12
16,GTCGCAATGA,4.37
17,GTCGCAGAAG,0.955
18,GTCGCAGTCA,1.01
19,GTCGCTCGGG,0.972
20,GTCGCTTAGC,1.08
21,GTCGGATGTT,0.986
22,GTCGGGAAAA,1.07
23,GTCGTAGGCT,0.985
24,GTCGTCAGT,0.989
25,GTCGTCGCTC,1.01
26,GTCGTCGGGA,1.03

row,Sequence,switch fluorescence ratio
1,GTCGTCGGTG,1.03
2,GTCGTGAGA,1.03
3,GTCGTTTAG,0.993
4,GTCTAAGCGC,1.01
5,GTCTAGATAT,0.997
6,GTCTCAGGGG,1.11
7,GTCTCCCGCA,2.31
8,GTCTCCTCG,1.07
9,GTCTCGCGAA,1.06
10,GTCTCTCGA,0.964
11,GTCTGAGATT,0.997
12,GTCTGCATTT,0.964
13,GTCTGCCATG,1.01
14,GTCTGTATGG,1.02
15,GTCTTAAACG,1.06
16,GTCTTACTTG,0.98
17,GTCTTGGT,1.04
18,GTCTTTCTTA,1.03
19,GTGAAAGGAT,1.02
20,GTGAAATTCC,1.02
21,GTGAACAAAG,0.971
22,GTGAACGGGG,1.03
23,GTGAAGGGAA,0.953
24,GTGAAGGGC,0.961
25,GTGAAGTAGA,1.01
